Measured values from publication PMC4336329 (PLoS ONE, 2015).
The whole screen tested about 310,000 compounds, of which about 14,000 (4.5%) showed an effect of 50% or more. The effect is printed as a negative number. The list shows a part of the results.

Molecular target: human ether-à-go-go-related gene (hERG) potassium channel (human, UniProt Q12809)
Experiment: primary screen, population patch clamp on CHO cells stably expressing hERG
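Note: peak tail current of the secondary pulse compared with the same well before compound.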

human ether-à-go-go-related gene (hERG) potassium channel, sequence (Q12809 whole entry, looked up): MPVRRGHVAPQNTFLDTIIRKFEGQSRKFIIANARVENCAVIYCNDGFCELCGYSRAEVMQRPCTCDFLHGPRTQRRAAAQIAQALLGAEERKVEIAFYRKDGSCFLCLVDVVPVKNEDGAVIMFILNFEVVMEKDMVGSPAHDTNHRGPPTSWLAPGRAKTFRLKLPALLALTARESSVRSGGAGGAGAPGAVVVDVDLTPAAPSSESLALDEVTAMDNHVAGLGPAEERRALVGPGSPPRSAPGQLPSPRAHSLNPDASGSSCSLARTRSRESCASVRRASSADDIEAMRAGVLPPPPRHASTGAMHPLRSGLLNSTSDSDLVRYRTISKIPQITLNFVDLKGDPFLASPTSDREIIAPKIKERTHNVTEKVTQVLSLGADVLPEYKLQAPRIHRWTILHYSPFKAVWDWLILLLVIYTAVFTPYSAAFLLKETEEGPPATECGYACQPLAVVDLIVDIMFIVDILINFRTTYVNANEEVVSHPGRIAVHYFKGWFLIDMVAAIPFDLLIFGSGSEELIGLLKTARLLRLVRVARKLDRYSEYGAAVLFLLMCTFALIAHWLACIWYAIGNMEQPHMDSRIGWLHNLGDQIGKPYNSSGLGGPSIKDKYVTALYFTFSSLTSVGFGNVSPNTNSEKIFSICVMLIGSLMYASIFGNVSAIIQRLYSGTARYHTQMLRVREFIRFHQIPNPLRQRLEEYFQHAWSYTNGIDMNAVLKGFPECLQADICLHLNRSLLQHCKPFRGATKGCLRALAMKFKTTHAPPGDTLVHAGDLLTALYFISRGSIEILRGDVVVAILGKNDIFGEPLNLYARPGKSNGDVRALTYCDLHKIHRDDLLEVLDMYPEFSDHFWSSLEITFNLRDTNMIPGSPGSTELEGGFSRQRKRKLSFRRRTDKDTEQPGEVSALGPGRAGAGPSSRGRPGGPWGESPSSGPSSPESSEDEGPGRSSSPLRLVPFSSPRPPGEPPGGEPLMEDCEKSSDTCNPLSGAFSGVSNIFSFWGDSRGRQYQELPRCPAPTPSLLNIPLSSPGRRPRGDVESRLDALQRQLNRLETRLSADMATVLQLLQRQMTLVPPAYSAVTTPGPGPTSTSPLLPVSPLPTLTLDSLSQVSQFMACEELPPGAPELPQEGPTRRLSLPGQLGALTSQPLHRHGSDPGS

Point of comparison: `CC(=O)c1c(C)[nH]c(C(=O)OCC(=O)N2CCN(S(=O)(=O)c3ccc(C)cc3)CC2)c1C`, “hERG current change (%, negative = inhibition) at 10uM” value -19.8%. Against it:
- N#CCCN1CCCN(CCC#N)CCN(CCC#N)CCCN(CCC#N)CC1 — higher, 8.67%
- COc1cccc(NS(=O)(=O)c2ccc(S(=O)(=O)N3CCCC3)cc2)c1 — higher, -1.76%
- COc1ncnc2c1NC(=O)CS2 — higher, 9.87%
- Cc1cccc(OCC(=O)Nc2nonc2NC(=O)COc2cccc(C)c2)c1 — higher, 7.84%
- Cc1ccc(N2C(=O)Nc3cc(Cl)c(Cl)cc3N2O)cc1Cl — higher, 15.9%
- Cc1ccc(CN2CCN(C3CCCC3)C(CCO)C2)s1 (stereo not shown) — lower, -22.4%
- Cc1ccc(S(=O)(=O)/N=C(/Nc2ccc(F)cc2F)c2ccc(F)cc2)cc1 — higher, 7.35%
- Cc1ccc(S(=O)(=O)N2CCOCC2)cc1NC(=O)CSc1ccc(Cl)cc1 — lower, -51.3%
- CCOc1ccccc1N(CC(=O)NC1CCCCC1)S(=O)(=O)c1ccc(C)cc1 — higher, -7.2%
- CCN=C1S/C(=C\c2cn(C(C)=O)nc2-c2ccccc2)C(=O)N1CC — higher, 8.23%
- O=C(CNC(=O)c1ccccc1F)NCCc1ccc(Cl)cc1 — higher, 4.5%
- CC(C)C(NC(=O)CCNC(=O)c1ccc([N+](=O)[O-])cc1)c1nc2ccccc2[nH]1 (stereo not shown) — higher, 3.16%
- COc1cc(C(=O)Nc2ccccn2)cc(OC)c1OC — higher, 14.3%
- Cc1ccc(C)c(OCCCCN2CCNCC2)c1C.O=C(O)C(=O)O — higher, 4.42%
- COc1ccccc1NC(=O)C1CCCN1C(=O)NC1CCCCC1 (stereo not shown) — higher, 0.823%
- CCCCSc1nc2ccccc2n1CC(=O)O — higher, 9.82%
- O=C(CSC1=NCCS1)NCc1ccco1 — higher, 19.8%
- CC1=C(C)C(=O)C(CCCCC#CCCCC#CCO)=C(C)C1=O — higher, -11.9%
- Cc1c(Cl)cccc1N1C(=O)c2ccccc2C1=O — higher, 6.05%
- Cc1cc(NC(=O)CCC(=O)N(Cc2ccco2)C(C(=O)NC2CCCC2)c2ccccc2C)no1 (stereo not shown) — lower, -41.4%
- O=C(CCSc1ccccc1)NC(=O)COC(=O)C1CCCCC1 — higher, 26.2%
- COc1ccccc1CN1C[C@@H]2C[C@@H](c3[nH]c4c(C)cccc4c3C)N3CCC[C@@]23C1=O — lower, -26.7%
- O=C(Nc1ccon1)c1ccc(Br)o1 — higher, 3.85%
- CCOC(=O)c1[nH]cnc1C(=O)N1CCC(C)CC1 — higher, 23.1%
- O=C(NCc1ccc2c(c1)OCO2)c1cnc2ccccn2c1=O — higher, -6.29%
- COc1cc(NC(=O)Cn2nnc(-c3ccncc3)n2)cc(OC)c1 — higher, -0.328%
- Cc1cc(C)c(C)c(C(=O)COC(=O)CNC(=O)CN2C(=O)c3ccccc3C2=O)c1C — higher, 6.72%
- CCc1nnc(NC(=O)c2ccc(S(=O)(=O)N3CCCCC3)cc2)s1 — higher, 17.5%
- COc1ccc(OC)c(C(C)NC(=O)c2ccco2)c1 (stereo not shown) — higher, -8.81%
- Cn1c(=O)c(=O)n(C)c2cc(S(=O)(=O)N3CCc4ccccc43)ccc21 — lower, -34.2%
- Cc1ccc(C2=NNC(=O)C(c3ccc(Cl)cc3)C2)cc1 (stereo not shown) — higher, 9.79%
- CCOC(=O)N1CCN(C(=O)c2sc3nc(-c4ccc(F)cc4)cn3c2C)CC1 — lower, -62.1%
- COc1cc(/C=C2\C(=O)NC(=O)N(c3ccc(C)cc3)C2=O)cc(OC)c1O — higher, 5.19%
- O=C(Cn1c(=O)oc2cc(S(=O)(=O)N3CCCC3)ccc21)NCc1ccccn1 — higher, 0.635%
- CCCCCCCC1CC(/C(C)=N/NC(N)=O)OC1=O (stereo not shown) — lower, -45.3%
- CCOC(=O)C1=NN(c2ccccc2)C(=O)/C1=C\c1ccc(N(C)C)cc1 — higher, 21.1%
- O=C(O)CCC(=O)Nc1sc2c(c1C(=O)Nc1ccccc1)CCCCC2 — higher, 13.2%
- Cc1[nH]c2ccccc2c1Cc1nnc(SCC(N)=O)o1 — higher, 7.28%
- Cc1ccc(N(CC(O)CN2CCOCC2)S(=O)(=O)c2ccc3ccccc3c2)cc1 (stereo not shown) — lower, -67.4%
- CN(C)S(=O)(=O)c1cc(NC(=O)COC(=O)CCc2ccccc2)ccc1Cl — higher, -9.18%
- COC(=O)CSc1nc(C(C)C)nc2ccccc12 — higher, -6.41%
- CCN(CC)CC.COc1ccc(OC)c(-n2c(=S)[nH]c3c(sc(=S)n3-c3ccccc3)c2=O)c1 — higher, 15.1%
- CN(CC(=O)N1CCN(c2ccccn2)CC1)S(=O)(=O)c1ccc2ccccc2c1 — lower, -25.9%
- Nn1c(SCC(=O)Nc2ccc(F)c(F)c2)nnc1C1CCCCC1 — higher, 7.76%
- C=CCn1c(SCC(=O)O)nnc1-c1ccc(C(C)(C)C)cc1 — higher, 12.6%
- CCN1CCCC1CNC(=O)Cn1cnc2sc(C)c(S(=O)(=O)N3CCC(C)CC3)c2c1=O (stereo not shown) — higher, -14.5%
- CC1CCCCN1C(=O)c1cc(Cl)ccc1[N+](=O)[O-] (stereo not shown) — higher, 3.93%
- Cc1[nH]n2c(=O)c3c(nc2c1-c1cccc2ccccc12)CCC3 — higher, -18.2%
- CCCCc1c(C)nc(N2CCCC2)[nH]c1=O — higher, -2.53%
- CSc1cccc(NC(=O)CSc2nnc(C)s2)c1 — higher, -17.4%
- CN1CCCC(OC(=O)c2ccc(Cl)cc2)C1.Cl (stereo not shown) — higher, -5.81%
- O=C(CSc1nc2ccccc2c(=O)n1-c1ccccc1F)Nc1ccc2c(c1)CCC2 — higher, 9.61%
- COc1ccc(NS(=O)(=O)c2ccc3oc(SC(C)C(N)=O)nc3c2)cc1 (stereo not shown) — higher, 8.02%
- O=C(CN(C(=O)Cn1nnc(-c2ccc(F)cc2)n1)c1ccc(F)cc1)NC1CCCC1 — higher, -16.4%
- Cc1ccc(CC(=O)N2CCN(C(=O)c3ccco3)CC2)cc1 — higher, -7.76%
- CCCCCC(O)(c1ccccc1)C(CN1CCOCC1)c1ccccc1.Cl (stereo not shown) — higher, -11.3%
- Cc1ccc(-c2csc(NC(CO)c3nc4ccccc4n3CCOCCO)n2)cc1 (stereo not shown) — lower, -47.3%
- Cc1ccc(CNC(=O)C2CCCN2S(=O)(=O)c2ccc3c(c2)C(C)(C)C(=O)N3C)cc1 (stereo not shown) — higher, 0.556%
- O=C(CCS(=O)(=O)c1ccccc1)N1CCN(c2ccccc2F)CC1 — higher, -3.39%
- O=C(NC1CCCC1)c1cc(-c2ccc(Cl)cc2Cl)on1 — higher, 7.16%
- CC(=O)Nc1cccc(Oc2ccc3c(c2)C(=O)NC3=O)c1 — higher, 10.1%
- O=C(Nc1ccccc1N1CCOCC1)C1CCN(S(=O)(=O)c2ccc(Cl)cc2)CC1 — lower, -34.8%
- Cn1c(=O)cc(OCCCC(=O)NCc2cccnc2)c2ccccc21 — higher, 2.77%
- COc1cccc(N2CCN(S(=O)(=O)c3ccc4c(c3)NC(=O)C(C)C(=O)N4)CC2)c1 (stereo not shown) — higher, -4.46%
- CCC1(C)Cc2c(sc3nc(SC)nc(NCCN(C)C)c23)CO1 (stereo not shown) — lower, -42.9%
- Cc1ccc(-n2ncc3c(N4CCN(c5ccccc5)CC4)ncnc32)c(C)c1 — higher, -2%
- CCCCCCCOC(=O)c1nc(Cl)c(Cl)c(N)c1Cl — higher, -4.56%
- COc1ccc2c(C)cc(SCC(=O)N3CCOCC3)nc2c1 — higher, -5.29%
- CCN(CC(=O)Nc1cc(Cl)ccc1-n1cncn1)Cc1nc2ccccc2c(=O)[nH]1 — lower, -60.3%
- COc1ccccc1N(CC(=O)N(c1ccccc1)C(C)C)S(=O)(=O)c1cccs1 — lower, -22.8%
- Br.Cc1ccc(Cn2c(=N)n(CC(=O)c3ccccc3)c3ccccc32)cc1 — lower, -72.2%
- COc1cc(C(C)=O)ccc1OCC(=O)N1CCc2ccccc2C1 — higher, -9.57%
- COc1cccc(OC)c1CC1SC(=O)NC1=O (stereo not shown) — higher, -1.06%
- CC(CCc1ccccc1)NC(=O)CNC(=O)COc1ccccc1 (stereo not shown) — higher, -0.873%
- O=C(Nc1c(F)cc(F)cc1Br)c1cc2nc(C(F)F)cc(C(F)F)n2n1 — higher, -1.51%
- O=C(COC(=O)c1ccccc1SCC(=O)N1CCCC1)Nc1ccccc1OC(F)F — lower, -24.6%
- Br.Brc1ccc(-c2csc(NNC3=NCCCCC3)n2)cc1 — higher, 0.146%
- Cc1ccc(Sc2c(C)nn(C(=O)c3cccc(S(=O)(=O)N4CCOCC4)c3)c2C)cc1 — higher, -6.3%
- Clc1ccc(N2CCN(Cc3ccco3)CC2)cc1 — higher, -14.2%
- CCn1ccnc1C(O)(c1ccccc1)c1ccccc1 — higher, -6.51%
- CCN1CCN(C(=O)COc2ccc(S(=O)(=O)N3CCOCC3)cc2Cl)CC1 — higher, 3.13%
- Cc1nn(-c2ccccc2)c2[nH]c(=O)c(CNCC3CCCO3)cc12 (stereo not shown) — higher, -1.43%
- O=C(NCCc1ccc(O)cc1)c1ccc(Cl)cc1 — higher, -12.8%
- CCc1ccc(OCCCC(=O)Nc2ccc(N3CCOCC3)cc2)cc1 — higher, 21.8%
- Cn1nc([N+](=O)[O-])nc1Sc1nnnn1-c1cccc(C(=O)O)c1 — higher, 13.3%
- Cc1[nH]c2ccccc2c1C(c1ccccn1)N1CCC(C(N)=O)CC1 (stereo not shown) — higher, -11.4%
- C/C(=N\OCC(=O)OCC(=O)NC(=O)c1ccc(OC(F)F)cc1)c1ccc2c(c1)OCO2 — lower, -37.5%
